Measured values published in the RNAGym collection of RNA variant scans (doi:10.1073/pnas.2313332121).
Variants at the floor of the assay are shown more often than the library holds them.

B1: TPR 5TU (parent)
chain: GGAUCUUCUCGAUCUAACAAAAAAGACAAAUCUGCCACAAAGCUUGAGAGCAUCUUCGGAUGCAGAGGCGGCAGCCUUCGGUGGCGCGAUAGCGCCAACGUUCUCAACUAUGACACGCAAAACGCGUGCUCCGUUGAAUGGAGUUUAUCAUG

Variants of: B1
Assay: polymerase ribozyme fitness, log enrichment relative to wild type (log ratio); higher = more active; in vitro selection for triplet polymerase activity
Method in brief: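 Mutant libraries were PCR-built and transcribed for each subunit of a heterodimeric triplet polymerase ribozyme and selected for one round in triplicate at −7 °C, frozen, before gel excision of extended constructs and streptavidin-bead capture. Input and output libraries were Illumina-sequenced, keeping genotypes with ≥10 input reads and ≥1 read per output. Fitness is a logarithmic ratio of genotype to wild-type enrichment, in base 2, using inverse-variance-weighted replicate averages.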

Variant | polymerase ribozyme fitness (log ratio)
GGAUCUUCUCGAUCUAUCAAAAAAGACAAAUAUGCCUCAAUGCUUGAGAGCAUCUUCGGAUGCAGAGGCGGCAGCCUUCGGUGGCGCGAUAGCGCCAACGUUCUCAACUAUGACACGCAAAACGCGUGCUCCGUUGAAUGGAGUUUAUCAUG | ≤ -4.2
GGAUCUUCUCGAUCUAUCAAAAAAGACAAAUCUGACACAAAGCUUGUGAGCAUCUUCGGAUGCAGCGGCGGCUGCCUUCGGUGGCACGAUCGCGCCAACGUUCUCAACGAUGACACGCAAAACGCGUGCUCCGUUGAAUGGAGUUUAUCAUG | ≤ -4.2
GGAUCUUCUCGAUCUAUCAAAAAAGACAAAUCUGCUACAAAGCUUCAGAGCAUCUUCGGAUGCAGAGGCGGCAGCCUUCGGUGGCGCGACAGCGGCAACGUUUUCAACUAUGACAAGCAAAACGCGUGCUCCGUUGAAUGGAGUUUAUCAUG | ≤ -4.2
GGAUCUUCUCGAUCUAUCAAAAAAGACAAAUCUGCCAAAAAGCUUGAGAGCAACUUCGGAUGCAGAGGCGGCAACCUUCGGUGGCGCGAUAGCGUCAACGUUCUCAACUAUGACACGCAAAACGCGUGCUCCGUUGAAUGGAGUUUAUCAUG | ≤ -4.2
GGAUCUUCUCGAUCUAUCAAAAAAGACAAAUCUGCCACAAAGUUUGAGAGCAUCUUCGGAUGCAGAGGCGGCAGCCUUCGGUGGCGCGAUAGCGCUAACAUUCUCAACUAUGACACGCAAAACGCGUGCUCCGUUGAAUGGAGUUUAGCAUG | ≤ -4.2
GGAUCUUCUCGAUCUAUCAAAAAAGACAAAUCUGCCACAAAGCUUGAGAGCAUAUUCGGAUGCAGAGGCGGCAGCCUUCGGUGGCGCGAUAGCGCCAACGUUCUCAACUAUGACACGCAAAACGCGUGCUCCGUUGAAUGGAGUUUAUCAUG | -1.45
GGAUCUUCUCGAUCUAUCAAAAAAGACAAAUCUGCCACAAAGCUUGAGAGCAUAUUCGGAUGCAGAGGCGGCAGCCUUCGGUGGCGCGAUAUCGCCAACGUUCUCAACUAUGACACGCAAAACGCGUGCUCCGUUGAAUGGAGUUUAUUAUG | -2.92
GGAUCUUCUCGAUCUAUCAAAAAAGACAAAUCUGCCACAAAGCUUGAGAGCAUGUUCGGAUGCAGAGGCUGCAGCCUUCGGUGGCGCGAUAGCGCCAACGUUCUCAACUAUGACACGCAUAACGCGUUCUCCGUUGAAUGGGGUUUAUCAUG | ≤ -4.2
GGAUCUUCUCGAUCUAUCAAAAAAGACAAAUCUGCCACAAAGCUUGAGAGCAUCUUUGGAUGCAGAGGCGGCAGCCUUGGGUGGGGCGAUGGCGCCCACGUUCUCAACUAUGACACGCAAACCGCGUGCUCCGUUGAAUGGAGUUUAUCAUG | ≤ -4.2
GGAUCUUCUCGAUCUAUCAAAAAAGACAAAUCUGCCACAAAGCUUGAGAGCAUCUUCGGAUGCAGAGGCGGCAGCUUUCGGUGGCGCGAUAGCGCUAACGUUCUCAACUAUGACACGCAAAACGCGUGCUCCGUUGAAUGGAGUUUAUCAUG | 0.123
GGAUCUUCUCGAUCUAUCAAAAAAGACAAAUCUGCCACAAAGCUUGAGAGCAUCUUCGGAUGCAGAGGCGGCAGCCUUUGGUGGUGCGAUAGCGCCUACGUUCUCAACUAUGACACGCAAAACGCGUGCUCCGUUGAAUGGAGUUUAUCAUG | ≤ -4.2
GGAUCUUCUCGAUCUAUCAAAAAAGACAAAUCUGCCACAAAGCUUGAGAGCAUCUUCGGAUGCAGAGGCGGCAGCCUUCGGUGGCGAGAUAGCGCCAGCGUUCUCAACUAUGACACGCAAAACGCGUGCUCUGUUAAAUGGAGUUUAUCAUG | ≤ -4.2
GGAUCUUCUCGAUCUAUCAAAAAAGACAAAUCUGCCACAAAGCUUGAGAGCAUCUUCGGAUGCAGAGGCGGCAGCCUUCGGUGGCGCGAUAGCGUCAACGUUCUCAACUAUGACACGCAAAACGCGUGCUCCGUUGAAUGGAGUUUAUCAUG | -0.895
GGAUCUUCUCGAUCUAUCAAAAAAGACAAAUCUGCCACAAAGCUUGAGAGCAUCUUCGGAUGCAGAGGCGGCAGCCUUCGGUGGCGCGAUAGCGUCAAAGUUCUCAGCUAUGACACGCAAAACGCGUGCUCCUUUGAAUGGAGUUUAUCAUG | ≤ -4.2
GGAUCUUCUCGAUCUAUCAAAAAACACAAGUCUGCCACAAAGCUUGAGAGCAUCUUCGGUUGCAGAGGUGGCAGCCUUCGGUGGCGCGAUAGCUCCAACGUUAUCAACUAUGACACGCAAAACGCGUGCUCCGUGGAAUGCAGUUUUUCAUG | ≤ -4.2
GGAUCUUCUCGAUCUAUCAAAAAACACAAAUCUGCCACAAAGCUUGAGAGCAUCUUCGGAUGCAGAGGCGGCAGCCUUCGGUGGCGCGAUAGCGCCAACGUUCUCAACUAUGACACGCAAAACGUGUGCUCCGAUGAAUGGAGUUUAUCAUG | ≤ -4.2
GGAUCUUCUCGAUCUAUCAAAAAAUACAAAUCUGCCACAAAGCUUGAGAGCAUCUUCGGAUGCAGAGGCGGCAGCCUUCGUUGGCGCGAUAGCCCCAACUUUCUCAACUAUGACGCGCAAAACGCGUGCUCCGUUGAAUGGAGUUUAUCAUG | ≤ -4.2
GGAUCUUCUCGAUCUAUCAAAAAAGACAAAUCUGCCACAAAACUUGAGAGCAUCUUCGGAUGCAGAGGCGGCAGCCUUCGGUGGCGCGAUAGCGCCAACGUUCUCAACUAUGUCACGCAAAACGCGUGCUCCGUUGAAUGGAGUUUAUCAUG | ≤ -4.2
GGAUCUUCUCGAUCUAUCAAAAAAGACAAAUCUGCCACAAAAGUGGAGGGCAUCUUCGGAUGCAGAGGCGGCACCCUUCGGAGGCGCGAUAGCGCCAACGUUCUCAACUAUGACACGCAAAACGCGUGCUCCGUUGAAUGGAGUUUAUCAUG | ≤ -4.2

Variant | polymerase ribozyme fitness (log ratio)
GGAUCUUCUCGAUCUAUCAAAAAAGACAAAUCUGCCACAAAACUUGAGAGCAUCUUCAGAUGCAGAGGCGGCAGCCUUCGGUAGCGCGAUAGCUCCAACGUUGUCAACUAUGACACGCAUCACGCGUGCUCCGUUGAAUGGAGUUUAUCAUG | ≤ -4.2
GGAUCUUCUCGAUCUAUCAAAAAAGACAAAUCUGCCACAAAACUUGAGAGCAUCUUCGGAUGCAGAGGCGGCAGCCUUCGCUGGCUCGAUACCGCCAACGUUCUCAACUAUGACACGCAAAACGCGUGCUCCGUUGAAUGGACUUUAUCAUG | ≤ -4.2
GGAUCUUCUCGAUCUAUCAAAAAAGACAAAUCUGCCACAAACCUUGAGAGCUUCUUCGGAUGCAGAGGCGGCAGACUUGGGUGGCGCGAUACCGCCAACGUUCUCAACUAUGACACGUAAAACGCGUGCUCCGUUGAAUCGAGUUUAUCAUG | ≤ -4.2
GGAUCUUCUCGAUCUAUCAAAAAAGACAAAUCUGCCACAAAGCUUGAAAGCAUCUUCGGAUGCAGAGGCGGCAGCCUUCGGUGGCGCAAUUACGCCAACGUUCUCAACUAUGACACGCAAAACGCGUGCGCCGUUGAAUGGAGUCUAUCAUG | ≤ -4.2
GGAUCUUCUCGAUCUAUCAAAAAAGACAAAUCUGCCACAAAGCUUGAGAACAUCUUCGGAUGCAGAGGCGGCGGCCUUCGGUGGCGAGAUAGCGCCAACGUUGUGAACUAUGACACGCAAAACGCGUGCUCCGUUGAAUGGAGUUUAUCAUG | ≤ -4.2
GGAUCUUCUCGAUCUAUCAAAAAAGACAAAUCUGCCACAAAGCUUGAGACCAUCUUCGGAUGCAGAGCCGGCAGCCUUCGGUGGGGCGAUAGCACCAACGUUCUCUACUAUGACACGCAAAAUGCGUGCUCCGAAGAAUGGAGUUUAUCAUG | ≤ -4.2
GGAUCUUCUCGAUCUAUCAAAAAAGACAAAUCUGCCACAAAGCUUGAGAGCAUCUUCAGAUGCAGAGGCGGCAGCUUUCGGUGGCGAGAUAGCGCCAACGUUCUCAACUAUGACACGCAGAACGCGUGCUCCUUUGAAUGGAGUUUAUCAUG | ≤ -4.2
GGAUCUUCUCGAUCUAUCAAAAAAGACAAAUCUGCCACAAAGCUUGAGAGCAUCUUCGGAUGCACAGGCGGCAGCCUUCGGUGGCGCGUUAGGGCCAACGUUCUCAACUAUCACACGCAAAACGCGUGCUCCGUUGAAUGGAGUUUAUCAUG | ≤ -4.2
GGAUCUUCUCGAUCUAUCAAAAAAGACAAAUCUGCCACAAAGCUUGAGAGCAUCUUCGGAUGCAGAGGCGACAGCCUUCGGUGGCGGGAUAGCGCCAACGUUCUCAACUAUGACACGCAAAACGCGUGCUCCGUUGAAUUGAGUUUAUCAUG | ≤ -4.2
GGAUCUUCUCGAUCUAUCAAAAAAGACAAAUCUGCCACAAAGCUUGAGAGCAUCUUCGGAUGCAGAGGCGGCAGCCUUCGAUGACGCGAUAGCGCCAACGUUCUCAACUAUGACACGCAAAACGCGUGCUCCGUUGAAUGGAGUUUAUCAUG | -0.321
GGAUCUUCUCGAUCUAUCAAAAAAGACAAAUCUGCCACAAAGCUUGAGAGCAUCUUCGGAUGCAGAGGCGGCAGCCUUCGGUGGCCUGAUAGCGCCAACGUUCUCAACUAUGACACGCAAAACGCGUGCUCCGUUGAAUGGAGUUUAUCAUG | ≤ -4.2
GGAUCUUCUCGAUCUAUCAAAAAAGACAAAUCUGCCACAAAGCUUGAGAGCAUCUUCGGAUGCAGAGGCGGCAGCCUUCGGUGGCUCGAUAGCGCCAACGUUCUCAACUUUGACACGCAAAACGCGUGCUCCGUUGAAUGGAGUUUAUCAUG | ≤ -4.2
GGAUCUUCUCGAUCUAUCAAAAAAGACAAAUCUGCCACAAAGCUUGAGAGCAUCUUCGGAUGCAGAGGCGGCAGCCUUCGGUGGCGCGAUAGCGCCAACAUUCUCAACUAUGACACGCACAACGCGUGCUCCGUUGAAUGGAGUUUAUCUUG | ≤ -4.2
GGAUCUUCUCGAUCUAUCAAAAAAGACAAACCUGCCACAAAGCUUGAGAACAUCUUCGGAUGCUGAGGAGGCAGCCUUCGGUGGCGCGAUAGCGCCAAUGUUCUCAACUAUGACACGCAAAACGCGUGCUCCGUUGAAUGGAGUUUAUCAUG | ≤ -4.2
GGAUCUUCUCGAUCUAUCAAAAAAGACAAAGAUGCCACAAAGCUUGAGAGCAUCUUCGGAUGCAGAGGCGGCAGCCUUCGGUGGCGCGAUAGCGCCAACGUUCUCAACUAUGACACGCAAAACGCGUGCUCCGUUGAAUGGAGUUUAUCGUG | ≤ -4.2
GGAUCUUCUCGAUCUAUCAAAAAAGACAAAGCUGCCACAAAGCUUGAGACCAUCUUCGGAUGCAGAGGCGGCAGCCUGCGGUGGCGCGAGAGCGCGAACGUUCUCAACUAUGACACGCAAAACGCGUGCUCCGUUGAAUGGAGUUUAUCAUG | ≤ -4.2
GGAUCUUCUCGAUCUAUCAAAAAAGACAAAUCUGCCACAAAGCGUGAGAGCAUCUUCGGAUGCAGAGGCGGCAGCCUUCGGUGGUGCGAUAGCGCCAACGUUCUCAACUAUGACACGCAAAACGCGUGCUCCGUUGAAUGGAGUUUAUCCUG | ≤ -4.2
GGAUCUUCUCGAUCUAUCAAAAAAGACAAAUCUGCCACAAAGCUUGAGAGCAUCUGCGGAUGCAGAGGCGGCAGCCUUCGGUGGCGCGAUAGCGCCAACGUUCUCAACUAUGACACGCAAAACGGGUGCUCCGUUGAAUGGAGUUUAUCAUG | -1.81
GGAUCUUCUCGAUCUAUCAAAAAAGACAAAUCUGCCACAAAGCUUGAGAGCAUCUUCGGAUGCAGAGGCGGCAGCCCUCGGUGGCGCGAUAGCGCCAACGUUCUCAACUAUGACACGCAAAACGCGUGCUCCGUUGAAUGGAGUUUAUCAUG | ≤ -4.2
